# In PMC7718735:
# No constants are given. Whether binding was seen depends on the method and setting. Some entries that bind do so weakly or less than the wild type.
# T1: Lem2 MYTH bait (S. pombe) (UniProt Q10109)
# T1 sequence: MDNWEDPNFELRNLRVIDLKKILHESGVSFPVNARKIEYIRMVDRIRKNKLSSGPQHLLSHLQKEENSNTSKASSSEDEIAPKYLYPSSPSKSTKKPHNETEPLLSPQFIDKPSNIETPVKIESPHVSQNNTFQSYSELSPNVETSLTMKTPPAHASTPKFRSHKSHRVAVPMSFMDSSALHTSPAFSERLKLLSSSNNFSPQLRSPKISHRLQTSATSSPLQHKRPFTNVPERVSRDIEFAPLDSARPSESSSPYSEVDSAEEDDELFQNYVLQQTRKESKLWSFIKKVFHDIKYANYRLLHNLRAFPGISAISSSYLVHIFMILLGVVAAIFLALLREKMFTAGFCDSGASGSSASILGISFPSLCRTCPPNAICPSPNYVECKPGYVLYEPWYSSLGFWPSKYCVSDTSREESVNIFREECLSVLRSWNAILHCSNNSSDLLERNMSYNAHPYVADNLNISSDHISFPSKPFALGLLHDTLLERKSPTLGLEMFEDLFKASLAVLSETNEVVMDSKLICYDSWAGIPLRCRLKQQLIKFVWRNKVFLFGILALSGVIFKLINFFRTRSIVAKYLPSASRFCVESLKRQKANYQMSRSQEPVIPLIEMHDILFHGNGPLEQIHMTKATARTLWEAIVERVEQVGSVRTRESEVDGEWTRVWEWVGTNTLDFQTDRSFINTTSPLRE
# T2: Cut11 MYTH bait (wild type) (S. pombe) (UniProt O13961)
# T2 sequence: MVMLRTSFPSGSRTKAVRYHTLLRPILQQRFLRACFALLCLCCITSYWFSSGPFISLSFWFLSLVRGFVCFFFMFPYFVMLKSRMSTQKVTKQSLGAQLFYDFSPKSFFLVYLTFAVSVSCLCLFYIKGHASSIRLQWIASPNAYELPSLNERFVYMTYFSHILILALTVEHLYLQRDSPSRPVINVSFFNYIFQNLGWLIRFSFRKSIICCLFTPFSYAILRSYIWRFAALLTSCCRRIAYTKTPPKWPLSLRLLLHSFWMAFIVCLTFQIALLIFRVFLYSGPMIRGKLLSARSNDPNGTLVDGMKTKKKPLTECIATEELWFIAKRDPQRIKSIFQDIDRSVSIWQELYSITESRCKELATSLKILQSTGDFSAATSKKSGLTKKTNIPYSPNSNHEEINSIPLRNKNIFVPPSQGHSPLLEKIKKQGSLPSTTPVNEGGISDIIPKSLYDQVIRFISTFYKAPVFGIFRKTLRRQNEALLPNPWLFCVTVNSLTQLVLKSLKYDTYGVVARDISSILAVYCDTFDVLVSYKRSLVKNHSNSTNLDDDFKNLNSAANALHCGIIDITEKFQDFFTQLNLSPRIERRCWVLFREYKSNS
# B1: Bqt3 MYTH prey (protein, UniProt O74510 1-255)
# chain: MSGSKCCSSSNTIKVSIYLFLHTLTYGLLNYHLNPRLLASTGVVESDIPYWMSYLSIIMHVGQSLLLQKFNLGYGWLLLTKYPVYVLLSTYYLTPLSQIAWAFIIDAISLLVARCFSRANPIKCSNQVNTQYSVSFLFTIMASVLISVLNYISQKIFLNGLILGNSHNVVTSLVAPPLPLQYLAHVPIGYVIQRVVFSERPIPQSLFLMIFLTLWNCFIPYSILFSMNWSAMFQVVGAYLSQIWIITFICWALSL
# B2: Bqt4 MYTH prey (protein, UniProt O60158 1-432)
# chain: MTENEKSRSLPAERNPLYKDDTLDHTPLIPKCRAQVIEFPDGPATFVRLKCTNPESKVPHFLMRMAKDSSISATSMFRSAFPKATQEEEDLEMRWIRDNLNPIEDKRVAGLWVPPADALALAKDYSMTPFINALLEASSTPSTYATPSRPTAQKSETSEGEPESSTSATTTSVARRTRQRLAEHLENSKKTILQHDNKEEDKEIHSEENETKDEIKSEKKEPEIKKQEGGSSTEKVGQPSSSDDKAKGSTSKDQPSEEEEKTSDIQDRKIKTPIKPSLLGKIRSSVNKGMTDVASQVNRGMTDVASQVNKGVNGVASQVNKGMNGVANQVNKGVTGVASQVRKPVGKLEKKFENLEKSIGDTLKSSIRSSPKSKKRSREDFEENEDYNAMVPVKRSRITKLESEVYYEKRKVRALGGIAIGLGVGAILPFLF
# B3: Nsp1 MYTH prey (protein, UniProt Q10168 1-598)
# chain: MSFNPGNNQNSGFSFGKPAQPNSAAQGAATPAATGLFGNTNNNTSSTAPSGGLFGSNNASNTSAPSTFSFGKAATTGNSTNASTSSPFSFGSTNTNNTAGAKPLFGGLGSTGSANSTGDKSKNTASSATGAATTNPSGSTFNFGSSNNSFNFGKPASTTNTTTPAAASTGSLFGKPAATGTTSNAPPASSTSTTPATGSGGFSFGKPASLGSTNNASTSTTANSGFSFGKPATTSAPGSNTTVTPSSSITGTNDSKPAASNTGSAPTTGFSFGKPAGQAASTATDKGTTTTSSAGTGFSFGKPATTEDTNKPTAPNSAFTKPATSTGDNKPTFSFGNTSKPTENTSTTATSAPPLSNNTKPAEGANQTSSGFSFGKPATDTTTSTSKTGPLFGNKPADPSAKPGATASTTPSEPPPSSIKHKTLQEILNKWSTDLTTQTEVFNKLCDQVSDWDRTLVDNGALISKLYTETVEAEQMSNRIDDGLEYVSSSQQELFKLLDSYETQLETFDGRATSALNVERERAFGVADDILSRLDRLGEDLGTVINQMNDFSKPDDSISEIVKVLNAQLASLGWVENRIFQMEEKLDTIKKKNSDVLF
# B4: Rtn1 MYTH prey (protein, UniProt P53694 1-308)
# chain: MSEQHSLNPFESGSVTASDVAAAKSGAEDLVNTLTAHTVHPSTELPSATSFPSALPNSENPVIQNISSSSSEPHHTSQSTPGETSSPVCPVSGAHGGADKKCPALEAGCPFTNTTKQNVDPEISNALWSVLTWKNTSCSFSTLMSILALVYVPSWINLPRLFFRTFRYVFLITSIIEFGGLFASNGKRGVLSHFRSSYITCDSKALDRIVNSIVDIFNVMLIQFQRILFAESPILTFTASVAAFIEFFLSGFLSYKSLFVWNVLFAFILPRLYVCNERSIKHLVASLERSGDKLKKQATETINTTVNK
# B5: Sey1 MYTH prey (protein, UniProt Q9UTE0 1-762)
# chain: MSTASNRVSTQIVDEHKQFNNELPKFMQSVGLLDAGFNYHVVAVLGSQSTGKSTLLNNLFGTSFSVMDASKRQQTTKGIWLSKANNSPILVMDVEGTDGRERGEDQDFERKSALFSISTSEVIIVNMWENQVGLYQGSNMALLKTVLEVNLQLFHNKKERCLLQFVIRDFLGNTSMENLADTIMTDLNNIWASLSKPEGFENSVINDFFDVGFTGLPHKILCSDAFSEAVDSLRERFVDNNNSDYIFNVSYHKKIPADGFSLYTREIWDTIENNKDLDLPTQQQLLAQYRCDEIITEVMEPFSTACTILQKEFLPGNLCKDLPTKLLNMFETVIEAYDRQASRYNVHIYQKKKQELIASVDSHLYVFFQAQLNALHKELIKSFFDASNEFPSDTPFKESSSIKINELVNKMREEGESLSLPHVHWDVDPFILKLSEELTQNSETLCKEKLKEKLEELFTGFEFEVSEAVEVAFQKLSHNVWDTLLNEFLAAQNTTIEKIKNIVPFYVDIDDTKTTEEYIINFKKNSWLFFRKKIDSEMSEVLLQQRLRVYFEELFRYDSDGMPKLWKKSGTIDRDYRESLTKTLDLINVLASIKVSDGNYPDLNVDIKTLEPEYTSPASFFTILNRRRVSDISVNFKRSADLIFMDCKRSVINTTTRIPPYFWVLLIVLGWNEFMAILRNPFVFMILMFGGTVVYGLYISGLIWPAKMVLERATNNLVDLATDRFSNTYQEQVQQRAMQRTEKSGSPVASADDAEAEKTALS
# B6: Dlc1 MYTH prey (protein, UniProt Q9UTS6 1-111)
# chain: MSCPIDSKKLEEICLEAAQPVLKASEYDGDKTAEMNQSVIYAVLNALNKETQSYKWIVSSTLVQKLPEDHPSRGVHAAHAACWNCEKDGMTTIKESGEAIDVVLSIMWISI
# B7: Ely5 MYTH prey (protein, UniProt O94384 1-298)
# chain: MLKMEDDQFERFVGLFSMKDEDFPYNSQVTNEIQTFRKQQVDSQLFFDVLLSFIEGIEDPSSLYPPKSIDDLQSLFMIIENSNIDELKQQCFYYYLLKDWEKSETYSEQVSLPKNYQHLMDGYYYLDRLKFEEAINHLLLPDVLPNFPDKIIETLYSNEKYKFLIRFVSFVGPPLDTFRKEECYALSLVRYSFLASYHYMKKCTKPLVLWEEMIQLILESNDTQSCKLIVSLPLSQEECEVLFSLLRSKKEPLYLNTLLALLVESNNIQEALELSSNSTHLQKSAVNTYLHKLNSLSS
# B8: Dlc2 MYTH prey (protein, UniProt Q9UR05 1-85)
# chain: MAVIKAVDMSEKMQQEAIHAAVQAMEKFTIEKDIAAFIKREFDKKFSPTWHCIVGRNFGSFVTHESRHFIYFYLGTVAFLLFKSG
# B9: Yop1 MYTH prey (protein, UniProt Q9UU91 1-182)
# chain: MSFQVRVKQNMQDLDNRLAAFPQLNSLEKNFGVSKLYVFLTAAGIYALFLFLNWGGFLLTNLLAFAMPAFFSINAIETTNKADDTQWLTYYLVTSFLNVIEYWSQLILYYVPVYWLLKAIFLIWLALPKFNGATIIYRHLIRPYITPHVIRICKSVSRQNAAPAPTASSFAHTTATDIPPSI
# B10: Yip1 (SPCC61.04c) MYTH prey (protein, UniProt O94348 1-227)
# chain: MAYYNNPANLQYYDYSYTADNSFNTQSRAAGFYDEPLHEPLSQGWLAAFSTSGYPGEPSLLEELEINFGHIKQKTTHVLNPFKHVDVHIMDDTDMAGPILFCLLFSTFLSLHGRSHFGYIYGIALLGSLSLHFVLRLMSAKNLFFTRTVSVLGYSLLPLVVIAFFKNIFTFNGIAGYALAALACIWCTYAASAMFVGILQVNNMRFLVAYPIALFYGVFAVITVFSK
# B11: Nup45 MYTH prey (protein, UniProt Q09793 1-425)
# chain: MFGLNKTPSFGSTGTQNQNTGTSAGTGLFSSNTFGNNTQANTPASTGFGGVTGGAFGQTKPQTGGSLFGNKPNATSTTPGLNLFGQNPQAAPGGSLFGASTTKPQAPGGLFNQNQTQAQPAQAAPTGGLFGLSGQNQTQSQTQPAQANTSLFGQSNIGTTGGLFDQNRPNTSTFGQFSTQPASAGLFGQSTQPSGSTGFGLSNNTQTTPFFSAAQQQPSTTQLPSNPAINATTRYSSLNANTQKFLDDLDKEIFSQIQLAEELQTKLGTVSELVESVPNDVAEVQRRLSSVSTALLIDSDEIETTKRVVDEDTSNARISSRILDVFKTPGATYPFASNDPLMNYFEQFTENAKKRTDLYAATIGELEQHLEQVETTPQNNSPEALLKTIKEEHKLFMALSNRFAQVHDEVKRLQVNTSTSLPFIS
# B12: Nup44 MYTH prey (protein, UniProt O42963 1-403)
# chain: MAFSFGQQGSSIKAPSIGSTGVFGQSNTTKPTAPFGSGSIFGSTNTNVGAGGPTGSSSAPPFGNSIFGKTQQQPTTSFSNTTTNAPQSTVFGQNAASRTGNSNTQPLFSWSTVNNPTKPVDETNATIPSSLLLSSGISPNATVSNAQYGPAQPPSVEEQVQKILNAWNLNHPDCAFQRFFYNKVPVEQAALYVKPPNYNQQKWDEAVANRPSNSVVPVLAVGFPDVQKRINMQIQQVNTYRIRMREIVETLGRLSNKHDLDFSIKLAEAKNRHVRLSERILRLAIKVHVLRHRGYALKPNEEELRKKLDDLTKSLNNPEIFGRLNEIWARITLIFEGEKISEDQRSNLAKGVVDWRKNSDQLEVITDVLRDHQVGLSYVVKLMQEDLATLNKQLTEHVPQSQK
# Biological target: T1, Lem2 MYTH bait (S. pombe)
# Experiment: two-hybrid; split-ubiquitin membrane yeast two-hybrid (MYTH) in S. cerevisiae; bait-Cub-LexA-VP16 strains mated with the arrayed Nub prey library, diploids spotted in quadruplicate on SD-leu-trp-ade-his with 25 mM 3-AT, imaged every 24 hr for 4 days; positive by a colony density cutoff
row,binding,Binder
1,binds,B1
2,binds,B2

# Biological target: T2, Cut11 MYTH bait (wild type) (S. pombe)
# Experiment: as above
row,binding,Binder
1,no binding,B3
2,binds,B4
3,binds,B5
4,binds,B6
5,no binding,B7
6,binds,B8
7,binds,B9
8,binds,B10
9,no binding,B11
10,no binding,B12
